Source: PubChem BioAssay AID463173 (ICCB-Longwood Screening Facility, Harvard Medical School, 2010)
In all, about 52,000 compounds went through this assay and about 1,700 (3.3%) were called active. Rule as the data show it: active = survival mostly below about 52% (no sharp cut-off); inactive = mostly above about 56%. Some of the results follow.

tested on: Wild type; test: growth inhibition of S. aureus wild type versus tarO mutant, primary screen, teichoic acid synthesis inhibitors, RN4220, OD600 (AID 463173); conditions: S. aureus RN4220 wild type/DeltatarO growth, OD600, 18 h, stronger effect = lower value, screened at 18.75 µg/mL (by protocol)

Row | Compound | survival
1 | Cc1ccc(NC(=O)COCc2cc(-c3cccs3)on2)cc1Cl | inactive: 65%
2 | CCOc1ccccc1CNC(=O)CCn1cccn1 | inactive: 93%
3 | Cc1[nH]c2ccccc2c1C(=O)C(=O)NC1CC(=O)N(c2ccccc2)C1 (configuration not stated) | inactive: 83%
4 | CCc1ccccc1N1C(=O)N(C)c2ccccc2S1(=O)=O | inactive: 66%
5 | COC(=O)c1ccc(NC(=O)CN(c2cccc(C(F)(F)F)c2)S(C)(=O)=O)cc1 | inactive: 88%
6 | Cc1cccc(-n2c(SCC(=O)Nc3ccccc3C)nc3c(oc4ccccc43)c2=O)c1 | inactive: 86%
7 | CCCN(CCC)CCCNC(=O)C1CCN(S(=O)(=O)c2cccc3nsnc23)CC1 | inactive: 90%
8 | CCOc1ccc(S(=O)(=O)N2CCN(c3ccc(C)cc3C)CC2)c2ccccc12 | inactive: 81%
9 | COc1cccc(CSc2nc(-c3ccccc3OC)nc3c2Cc2c(CO)cnc(C)c2O3)c1 | inactive: 78%
10 | COc1cc(C2/C(=C(\O)c3ccccc3)C(=O)C(=O)N2CCC(=O)O)ccc1O (configuration not stated) | inactive: 102%
11 | CSc1nn(Cc2ccc(F)cc2)c(N)c1S(=O)(=O)c1ccc(Cl)cc1 | inactive: 78%
12 | O=C1COc2ccc(-c3cc(-c4ccc(F)cc4)c4c(n3)-c3ccccc3OC4)cc2N1 | inactive: 80%
13 | CCN(C(=O)c1ccc2c(=O)n3c(nc2c1)CCCCC3)c1cc(C)ccc1C | inactive: 73%
14 | CCc1nc(SCc2ccccc2)[nH]c(=O)c1C | inactive: 102%
15 | CCC(=O)N1CCc2cc(S(=O)(=O)NC(C(=O)NCCc3ccc(C)cc3)C(C)C)ccc21 (configuration not stated) | inactive: 92%
16 | CCCOc1cccc(C2c3c(oc4cc(C)c(C)cc4c3=O)C(=O)N2CCCN2CCOCC2)c1 (configuration not stated) | inactive: 78%
17 | CSc1cccc(NC(=O)CN(C)S(=O)(=O)c2ccc3c(c2)CCCN3C(C)=O)c1 | inactive: 70%
18 | Cc1ccc(-c2nc3cc(NC(=O)c4cc(Br)ccc4Cl)ccc3o2)cc1 | inactive: 85%
19 | CCOc1ccccc1C(=O)N1CCCCC1CCN1CCOCC1 (configuration not stated) | inactive: 85%

Row | Compound | survival
20 | Cc1ccc(-c2n[nH]c3c2C(c2cccs2)N(c2ccc(Cl)cc2)C3=O)cc1 (configuration not stated) | inactive: 80%
21 | Cc1ccc(C)c(C(=O)CSc2nc3cc(C(=O)NC4CCCC4)ccc3c(=O)n2CC2CCCO2)c1 (configuration not stated) | inactive: 85%
22 | COCc1cc(C)n(CC(=O)Nc2cccc(C(C)=O)c2)c(=O)c1C#N | inactive: 81%
23 | CC(C)CCNC(=O)c1ccc2c(c1)N(C)C(=O)c1ccccc1S2 | active: -6%
24 | CC1CCN(S(=O)(=O)c2cn(CC(=O)Nc3ccc(F)cc3)c(=O)c3ccccc23)CC1 | inactive: 67%
25 | CC(C)c1nn2c(=O)cc(COC(=O)c3ccccc3Cl)nc2s1 | inactive: 69%
26 | COc1ccc(N2CCN(Cc3nc(-c4ccc(C)cc4)no3)CC2)cc1 | inactive: 74%
27 | CCOc1cc2[nH]c(=O)n(CCCCCC(=O)NC(C)CC)c(=O)c2cc1OCC (configuration not stated) | inactive: 74%
28 | CCn1cc2nc(SCc3cccc(F)c3)n(CCc3ccccc3)c(=O)c2n1 | inactive: 70%
29 | CCC(Cc1ccccc1)NC(=O)Cn1ncc2c3ccccc3n(Cc3ccc(F)cc3)c2c1=O (configuration not stated) | inactive: 131%
30 | O=C(Nc1cnn(C23CC4CC(CC(C4)C2)C3)c1)c1cc(-c2ccccc2)on1 | inactive: 120%
31 | O=C(O)CCn1ccc2cc(S(=O)(=O)N3CCCCC3)ccc21 | inactive: 114%
32 | COc1ccc(Cl)cc1NC(=O)CCCS(=O)(=O)c1nc(-c2ccc(OC)c(OC)c2)cc(C(F)(F)F)n1 | inactive: 79%
33 | Cc1cc(C)n2c(Nc3cccc(C(F)(F)F)c3)c(-c3ccsc3)nc2n1 | inactive: 89%
34 | Cc1nnc(NC(=O)CSCc2cc(=O)c3ccc(C)c(C)c3[nH]2)s1 | inactive: 102%
35 | O=C(NCc1ccccc1Cl)C1CCN(c2ncnc3c2nc2n3CCCCC2)CC1 | inactive: 82%
36 | COc1ccc(-c2csc(-c3c(N)c(C(=O)c4ccccc4)n4ccccc34)n2)cc1 | inactive: 67%
37 | Cc1ccc2oc(=O)c3cc(C(=O)Nc4cccc(C#N)c4)sc3c2c1 | inactive: 92%
38 | Cc1ccccc1-c1nnc(SCC(=O)N2CCCc3ccccc32)n1C | inactive: 98%

Row | Compound | survival
39 | CC(C)c1ccc(S(=O)(=O)c2cnc(SCC(=O)Nc3ccc(F)cc3F)nc2N)cc1 | inactive: 87%
40 | Cc1ccc(-n2nc3c(N4CCC(C(=O)NCCC(C)C)CC4)nnc(C)c3c2C)cc1 | inactive: 120%
41 | CCOc1ccccc1NC(=O)c1nnn(CC(=O)Nc2ccccc2CC)c1N | inactive: 82%
42 | COc1ccc(NC(=O)c2[nH]nc3c2CSc2ccccc2-3)c(OC)c1 | inactive: 87%
43 | CCC(=O)N1c2ccccc2CC1C(=O)NCCc1ccc(Cl)cc1 (configuration not stated) | inactive: 135%
44 | COc1ccc(C2(NC(=O)c3ccc(Cn4cc(Cl)cn4)o3)CCCCC2)cc1 | inactive: 117%
45 | O=C(Cn1nnnc1-c1ccccc1F)Nc1ccc(F)c(F)c1 | inactive: 85%
46 | Cc1cc(C)cc(-n2ccnc2SCC(=O)Nc2ccc(C)c(Cl)c2)c1 | inactive: 66%
47 | CC(=O)Nc1ccc(-c2nn3c(C)nnc3s2)cc1 | inactive: 103%
48 | O=C(NCCc1ccccc1)C1COc2ccccc2C1 (configuration not stated) | active: 10%
49 | CCOC(=O)N1CCc2c(sc3c2c(=O)n(-c2ccc(F)cc2)c(=O)n3CC(=O)c2ccccc2)C1 | inactive: 85%
50 | Cc1cccc(CN2C(=O)c3ccccc3Sc3ccc(C(=O)NCc4cccs4)cc32)c1 | inactive: 74%
51 | O=C(Oc1ccc(OC(=O)N2CCOCC2)cc1)N1CCOCC1 | inactive: 128%
52 | CCOC(=O)c1c(C)n(-c2ccccc2)c2ccc(OC(=O)c3cc(OC)cc(OC)c3)cc12 | inactive: 63%
53 | O=C(Nc1sc2c(c1C(=O)NCCc1ccccc1)CCC2)c1ccco1 | inactive: 115%
54 | CCc1ccc(NC(=O)c2cc(C)nn2-c2ccccc2)cc1 | inactive: 78%
55 | Cc1cc(=O)n(CC(=O)NC(C)c2ccccc2)c2c1c(C)nn2C (configuration not stated) | inactive: 65%
56 | CCOC(=O)c1c(NC(=O)c2cc3ccccc3c(=O)o2)sc2c1CCC(C(C)(C)C)C2 (configuration not stated) | inactive: 69%
57 | CCc1cccc(C)c1NC(=O)C(CC)Sc1nncn2c1cc1occc12 (configuration not stated) | inactive: 78%
